# Source: PubChem BioAssay (NCI)
# “And” between values parts separate entries of the source, which are not always exact repeats. Equal values may be shown once.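 1) Cells in 96-well plates. 2) Compound, 48 h, 5 concentrations. 3) Linear interpolation between surrounding doses. 4) Unreached endpoint = highest concentration. At the GI50, growth is halved. TGI: concentration producing complete growth inhibition.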
# Tested on: NCI-H322M lung
# Test: NCI tumour cell line growth inhibition, 48 h
SMILES,GI50,TGI
O=C(/C=C\c1ccnc2ccccc12)c1ccc([N+](=O)[O-])cc1,> 100 µM,> 100 µM
COc1ccc(/C=C2\N=C3SC=C(N)N3C2=O)cc1,1.91 µM,12.3 µM
O=C(NCc1ccccc1)c1cnc(Cl)cn1,,> 100 µM
C[Si](C)(C)/C=C/CN1C(=O)CCC1O (stereo not drawn),,> 100 µM
CN1OC(=O)N(C)C1c1ccccc1 (stereo not drawn),,> 100 µM
CNC(=O)CN1CC(=O)N(C)C(=O)C1,,> 100 µM
O=C(/C=C/c1ccco1)Nc1ncc(Cc2ccc(F)cc2)s1,0.23 µM,> 100 µM
CC1(C)OCN(c2ccc(Cl)cc2)Cn2c1nc1ccccc12,,> 100 µM
Cc1ccc2c(O)c3c(cc2c1)C(=O)c1c2c(cc(O)c1C3=O)C1(C)OC(O2)C(O)C(N(C)C)C1O (stereo not drawn),,2.91 µM
COC(=O)C1=C(O)C(C(=O)OC)[C@]2(O)[C@H](C(=O)OC)[C@H]1C[C@@H](c1ccc(OC)cc1)[C@H]2C(=O)OC (stereo partly drawn),,88.4 µM
C#Cc1ccc(NC(=O)c2ccc(/C=C/C(=O)c3nccn3C)cc2)cc1,0.459 µM,1.17 µM
CC(=O)Nc1ccc(-c2nnc(SCC(=O)Nc3ccc(C)cc3)o2)cc1,,93.1 µM
CC(=O)/C(C)=N/N/C(N)=N\S(=O)(=O)c1cc(C(=O)Nc2ccccc2)c(Cl)cc1SCc1ccccc1,37.7 µM,> 100 µM
CC1=C2C(c3ccccc3)(c3ccccc3)C3C=CC2(C=N3)N(C(=O)NC2CCCCC2)C1=O (stereo not drawn),,36 µM
COc1ccc2c(c1)c1cc(OC)ccc1n2CCCCOc1ccc(-c2c3ccccc3c(-c3ccc(OCCCCn4c5ccc(OC)cc5c5cc(OC)ccc54)cc3)c3ccccc23)cc1,,> 100 µM
CN(/N=C\c1ccc2ccccc2c1)C1=NCCCCN1,,71.9 µM
COc1cc2c(c(OC)c1OC)C(=O)CC2N (stereo not drawn),,> 100 µM
O=c1c([Se]c2coc3ccccc3c2=O)coc2ccccc12,,12.5 µM
CC(C)[Si](OC1=CCCCCC12C(=O)N(C)c1ccccc12)(C(C)C)C(C)C (stereo not drawn),,42.4 µM
COc1ccc([C@H]2O[C@@H](CO)C[C@]2(O)c2ccc(OC)cc2)cc1,> 100 µM,> 100 µM
CCOC(=O)C(C[Si](C)(C)C)P(=O)(OCC)OCC (stereo not drawn),,> 100 µM
Cc1nc(-c2nc([N+](=O)[O-])c([N+](=O)[O-])[nH]2)cs1,,> 100 µM
CCCCCCCSCC(O)COC(c1ccccc1)(c1ccccc1)c1ccccc1 (stereo not drawn),,> 100 µM
CCCc1c2c3ccccc3nc-2nc2ccccn12,,> 100 µM
Fc1ccccc1C1CC(C(c2ccccc2)c2ccccc2)=Nc2ccccc2S1 (stereo not drawn),,26.4 µM

SMILES,GI50,TGI
CC(=O)Oc1c(OC(C)=O)c(-c2ccc(O)c(O)c2)c(O)c(O)c1-c1ccc(O)cc1,,> 100 µM
CCOC(=O)c1nc2cc(C(F)(F)F)ccc2nc1Nc1ccc(Cl)c(Cl)c1,,> 100 µM
CCC(=O)NCCc1c[nH]c2ccc(OC)cc12,,> 100 µM
CC/C(Cl)=N\OC(=O)Nc1ccc(C#N)cc1,,34.1 µM
C[C@@H]1OC(=O)C[C@H]2CC(=O)N(CCc3cn(S(=O)(=O)C(F)(F)F)c4ccccc34)C[C@@H]21,,> 100 µM
O=C(/C=C/c1ccc(O)c(O)c1)OCCOC(=O)/C=C/c1ccc(O)c(O)c1,,> 100 µM
CCN(CC)CCNc1ccc(C)c2sc3ccc(O)cc3c(=O)c12,,8.29 µM
Cc1ccc(Nc2ccc(Nc3ccc(C)cc3)c3c2C(=O)c2c(O)ccc(O)c2C3=O)cc1,,> 100 µM
COC(=O)C1=C(C)NC(C)=C([N+](=O)[O-])C1c1cccc(NO)c1 (stereo not drawn),,> 100 µM
C[Se]C(=O)CC1=C2C=C(F)C=CC2/C(=C\c2ccc(S(C)=O)cc2)C1C (stereo not drawn),0.159 µM,3.31 µM
Cc1ccc(/C=N/Nc2ncccn2)s1,,> 100 µM
O/N=C\c1cc(O)c(O)c(/C=N/O)c1,,> 100 µM
Cc1ccc(C2=Nc3c(N)nc(N)nc3NC(c3ccccc3)C2)cc1 (stereo not drawn),,29.2 µM and 32 µM
Cc1nc(NC(=O)N2CCC[C@H]2C(N)=O)sc1-c1ccnc(C(C)(C)C(F)(F)F)c1,2.27 µM and 3.16 µM,23.6 µM and > 10 µM
COc1cc2c(cc1OC)CCN=C2,,> 100 µM
Cc1nc2c(-c3ccccc3)[nH]c(C)c2c(=O)o1,,> 100 µM
Cc1nc(C(N)=S)sc1C(=O)/C=C/c1cccc(O)c1,,> 100 µM
COc1ccc(C2S/C(=C\c3ccc(OC)cc3OC)C(=O)N2NC(=O)Cc2ccccc2)cc1 (stereo not drawn),,> 100 µM
CCSC1=CC(=O)c2ccccc2C1=O,17.6 µM,48.2 µM
Cc1cn(C2CC(N=[N+]=[N-])C(CO[Si](C)(C)C(C)(C)C)O2)c(=O)[nH]c1=O (stereo not drawn),,38.8 µM
CN(O)C(=O)Cc1ccccc1,,> 100 µM
O=C1c2ccccc2C(=O)N1c1ccc(OCCN2CCCCC2)cc1,,> 100 µM
O=C1OC(CN2CCN(c3ccccc3)CC2)CN1C(=S)Nc1ccccc1 (stereo not drawn),,> 100 µM
Cc1cc(=Nc2ccc3c(c2)c(N)cc(C)[n+]3C)nc(N)n1C,,> 100 µM
O=C(O)CCC1(c2ccccc2)NC(=O)NC1=O (stereo not drawn),,> 100 µM

SMILES,GI50,TGI
COc1ccccc1-n1c(SCc2cc(OC)c(OC)c(OC)c2)nc2ccc(Cl)cc2c1=O,6.11 µM,> 100 µM
S=C1C=C(c2ccccc2)Sc2ccccc2N1,,> 100 µM
C[C@@H]1C(O)CC[C@H](C)C12CC=CC2=O (stereo partly drawn),,> 100 µM
CCCCCCCCCN1CCC(=O)C(C(=O)OC)C1 (stereo not drawn),,> 100 µM
Cc1ccc(N2C(=O)/C(=C3\Sc4c(nc(C)[nH]c4=O)N3c3ccccc3)SC2=S)cc1,,> 100 µM
COc1ccc(/C=C2\COc3ccc(-c4ccccc4)cc3C2=O)cc1O,2.43 µM,12.6 µM
N#Cc1c(-c2ccc(Cl)cc2)c(C#N)c(=O)n(NS(=O)(=O)c2ccccc2)c1-c1ccccc1,,> 25 µM
O=C1C(c2ccccc2)=C(c2ccccc2)C(c2ccc(CCCCCCc3ccc(C4=C(c5ccccc5)C(=O)C(c5ccccc5)=C4c4ccccc4)cc3)cc2)=C1c1ccccc1,,> 100 µM
O=C(NC(Nc1ccc(F)c(Cl)c1)(C(F)(F)F)C(F)(F)F)C(C(F)(F)F)C(F)(F)F,,> 100 µM
NC(CSC(c1ccccc1)(c1ccccc1)c1ccc2ccccc2c1)C(=O)O (stereo not drawn),0.0478 µM,23.8 µM
CSCCCCCCCCCCOc1ccc(C=C2C(=C(C#N)C#N)c3ccccc3C2=C(C#N)C#N)cc1,,30.8 µM
CC(=O)Oc1cccc2c1C(=O)c1c(OC(C)=O)cc(C)cc1C2=O,,> 100 µM
Cc1cc(C)nc(NS(=O)(=O)c2ccc(NC(=O)c3cccc4cc5ccccc5nc34)cc2)n1,,> 100 µM
S=C(Nc1ccc(Br)cn1)NC12CC3CC(CC(C3)C1)C2,,61.6 µM
CN1CCN(c2ccc3[nH]c(C4=C(O)c5nc(CO)n(C)c5C(=O)C4=O)nc3n2)CC1,,> 100 µM
Cc1cc(C)c(C(=O)OC(c2ccccc2)C(c2ccccc2)N2CCOCC2)c(C)c1 (stereo not drawn),,> 100 µM
O=c1cccccc1NCCCCNc1cccccc1=O,,> 100 µM
Cc1n[nH]c(=O)n1N=C(c1ccccc1)c1ccccc1,,> 100 µM
COc1ccc2c(c1)CC[C@@H]1C2CC[C@]2(C)C(=O)NC(=O)CC12 (stereo partly drawn),,> 100 µM
C[C@@H]1CC[C@@]2(OC1)O[C@H]1C[C@H]3[C@@H]4CC=C5C[C@@H](O[C@@H]6O[C@H](CO)[C@@H](O[C@@H]7O[C@@H](CO)[C@H](O)[C@H]7O)[C@H](O)[C@H]6O[C@@H]6O[C@@H](C)[C@H](O)[C@@H](O)[C@H]6O)CC[C@]5(C)[C@H]4CC[C@]3(C)[C@H]1[C@@H]2C,1.31 µM,2.58 µM
CC1=C(C(=O)OC(C)C)C(c2ccccc2[N+](=O)[O-])C(C(=O)OC(CO[N+](=O)[O-])CO[N+](=O)[O-])=C(C)N1 (stereo not drawn),,89.3 µM
C=C(C)[C@H]1CC/C(C)=C/CCC(C)C(=O)CC/C(CO)=C\[C@@H]1O (stereo partly drawn),> 100 µM,> 100 µM
Cn1ccnc1C(=O)/C=C/c1ccc(C(=O)Nc2nc3ccccc3[nH]2)cc1,4.19 µM,> 25 µM
CC1(C)CC(=O)c2c(nc3ccc4ccccc4c3c2-c2ccc(NC(=O)CCCCC(=O)Nc3ccc(-c4c5c(nc6ccc7ccccc7c46)CC(C)(C)CC5=O)cc3)cc2)C1,,> 100 µM
CC(C)(C)C=C=C(C(C)(C)C)P(=O)(O)O,,> 100 µM

SMILES,GI50,TGI
COc1ccc(C(O)c2cc3c(N)c(C(=O)Nc4cccc(Br)c4)sc3nc2C)cc1 (stereo not drawn),0.264 µM,> 100 µM
Nc1cccc(OCc2nc(N)nc(N)c2-c2ccc(Cl)cc2)c1,,> 100 µM
CCC1(OC(C)=O)C(=O)OCc2c1cc1n(c2=O)Cc2cc3ccccc3nc2-1 (stereo not drawn),,> 100 µM
Clc1nc2c(-c3cccs3)ncnc2n1Cc1ccccc1,,5.56 µM
COC1=C(OC)CCC(/C(C#N)=C/c2ccc(OC)c(OC)c2)=C1,,> 100 µM
COc1cc(CC2c3cc(OC)c(OC)cc3CCN2C)c(Oc2cc3c(cc2OC)-c2c(OC)c(OC)c(OC)c4c2C(C3)N(C)CC4)cc1OC (stereo not drawn),,> 53.8 µM
C=CCn1c(=O)c(C)cn(/C(=C/C(=O)OCC)C(=O)OCC)c1=O,,> 100 µM
Oc1ccc2ccccc2c1N=Nc1ccccc1,,> 100 µM
COc1ccc2c(c1)OC13Oc4cc(OC)ccc4C=C1CCCC3=C2,> 100 µM,> 100 µM
NNC(=O)c1n[nH]nc1SSc1n[nH]nc1C(=O)NN,,> 100 µM
COc1cc2c(cc1OC)C(Cl)C(c1cc(OC)c(OC)c(OC)c1)=C2Cl (stereo not drawn),,34.5 µM
O=Nc1c(O)ccc2ccccc12,14.8 µM,28 µM
CC(C)(C)/C(O)=C\c1nc2cc(C(F)(F)F)ccc2[nH]c1=O,,> 100 µM
COc1ccccc1/C=C\c1cc(OC)c(OC)c(OC)c1,,> 100 µM
COc1ccc(NC(=O)C(=O)C2NC(=S)NC2=O)c(OC)c1 (stereo not drawn),,> 100 µM
Nc1c(C(=O)c2ccccc2)[nH]c(NCc2ccccc2)c1C(=S)Nc1ccccc1,,> 100 µM
CCCC[C@@H](COC(=O)N(Cc1cccs1)Cc1cccs1)NC(=O)N[C@@H](CC(=O)OC)c1ccc2c(c1)OCO2,> 100 µM,> 100 µM
CC(=O)c1cn(-c2ccc(Cl)cc2)c(=O)c2c(N)n[nH]c12,,> 100 µM
CCNCCNc1cc(-c2ccc(F)cc2)c(C#N)c2nc3ccccc3n12,6.38 µM,20.2 µM
CC(=O)N1CC(F)(F)c2c(Sc3ncc(N4CCC5(CC4)COC[C@H]5N)nc3N)cccc21,3.93 µM,> 100 µM
CCCCCCCCCC(=O)CC(=O)c1c(O)cccc1O,,> 100 µM
FC(F)(F)c1ccc(-c2cnc(Br)nc2NC2CCCCCC2)cc1,> 100 µM,> 100 µM
CCC1(C)N=C(C(N)=O)c2ncn(N=C(C)C)c2N1 (stereo not drawn),,> 100 µM
C=C(C)C1/C=C(/C(C)C)CC[C@]2(C)O[C@@H]2CC[C@H](C)CC1=O (stereo partly drawn),> 100 µM,> 100 µM
CC1OC(O)C(O)C(O)C1O (stereo not drawn),,> 100 µM
